Where “and” joins values, the source holds several entries; their conditions need not be identical. Equal values may be shown once. Screen size: about 350,000 compounds; about 700 (0.2%) were called active. Calls follow the shape of the dose curve; as a rule, active = well fitted inhibition curve with a large enough effect; inconclusive = small, poorly fitted or top-dose-only effect; inactive = flat fitted curve, though single readings scatter. The entries are a selection whose mix differs from that of the whole data set. Some compounds were tested as several samples or in several runs, with calls that do not always agree.
Potency is read from the fitted curve at half-maximal effect.

The assay deals with RecQ-like DNA helicase BLM (Homo sapiens) (UniProt P54132). Kind of assay: qHTS Assay for Inhibitors of Bloom's syndrome helicase (BLM). Also: nearly all actives have a fitted effect of over 35% in size.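 As to activity change, negative = inhibition: plate controls were vehicle for no effect and no enzyme for full effect.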 Conditions: recombinant BLM DNA unwinding, fluorescence dequenching; series mostly up to 56.1 µM; activity change, negative = inhibition: at the top concentration. For orientation: Quantitative high-throughput screening tests each substance at several concentrations.
UniProt P54132, sequence (P54132 whole entry, looked up): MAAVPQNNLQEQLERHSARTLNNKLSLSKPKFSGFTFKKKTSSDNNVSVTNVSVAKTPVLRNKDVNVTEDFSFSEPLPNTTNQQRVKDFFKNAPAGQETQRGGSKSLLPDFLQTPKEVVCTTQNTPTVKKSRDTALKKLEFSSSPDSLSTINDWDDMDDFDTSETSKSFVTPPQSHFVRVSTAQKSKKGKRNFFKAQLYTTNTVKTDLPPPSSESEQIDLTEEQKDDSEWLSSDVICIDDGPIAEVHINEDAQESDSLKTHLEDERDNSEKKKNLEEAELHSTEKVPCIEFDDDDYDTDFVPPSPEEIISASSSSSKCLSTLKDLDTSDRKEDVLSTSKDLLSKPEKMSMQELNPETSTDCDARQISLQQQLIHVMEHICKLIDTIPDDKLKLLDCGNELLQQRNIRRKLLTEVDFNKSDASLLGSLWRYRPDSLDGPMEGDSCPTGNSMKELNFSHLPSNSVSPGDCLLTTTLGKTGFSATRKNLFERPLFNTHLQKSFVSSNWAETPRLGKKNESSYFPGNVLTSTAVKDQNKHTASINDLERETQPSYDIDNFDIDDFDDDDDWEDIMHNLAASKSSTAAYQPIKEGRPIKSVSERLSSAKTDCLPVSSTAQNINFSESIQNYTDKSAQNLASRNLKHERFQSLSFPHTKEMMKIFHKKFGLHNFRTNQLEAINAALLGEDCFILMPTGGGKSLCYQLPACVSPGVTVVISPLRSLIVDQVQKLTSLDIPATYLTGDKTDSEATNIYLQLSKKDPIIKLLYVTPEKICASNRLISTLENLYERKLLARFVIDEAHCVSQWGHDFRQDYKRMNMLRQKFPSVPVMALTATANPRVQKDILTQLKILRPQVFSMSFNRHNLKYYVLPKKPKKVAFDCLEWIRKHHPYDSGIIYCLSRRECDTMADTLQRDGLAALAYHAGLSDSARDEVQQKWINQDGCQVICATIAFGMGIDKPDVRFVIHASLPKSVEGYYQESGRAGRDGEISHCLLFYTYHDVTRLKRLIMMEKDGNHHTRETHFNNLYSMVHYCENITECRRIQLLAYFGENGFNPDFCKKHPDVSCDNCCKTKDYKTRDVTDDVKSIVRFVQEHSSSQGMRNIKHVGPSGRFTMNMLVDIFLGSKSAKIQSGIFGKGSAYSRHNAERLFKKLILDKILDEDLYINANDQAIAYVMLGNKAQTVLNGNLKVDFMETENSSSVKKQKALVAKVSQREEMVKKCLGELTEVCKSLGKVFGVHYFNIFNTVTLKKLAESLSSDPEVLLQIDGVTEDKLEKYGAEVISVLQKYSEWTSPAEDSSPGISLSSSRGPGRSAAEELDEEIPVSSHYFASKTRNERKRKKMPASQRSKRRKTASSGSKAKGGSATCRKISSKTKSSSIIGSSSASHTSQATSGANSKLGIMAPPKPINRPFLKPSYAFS
For the compound `COc1cc(-c2ccc(N=Nc3ccc4c(S(=O)(=O)O)cc(S(=O)(=O)O)c(N)c4c3O)c(OC)c2)ccc1N=Nc1ccc2c(S(=O)(=O)O)cc(S(=O)(=O)O)c(N)c2c1O`, the “activity change, negative = inhibition” value is inactive: -4% [at 21.4 µM].
As for `Cc1ccc(N=Cc2cc(Cc3ccccc3Cl)cc([N+](=O)[O-])c2O)c(O)c1`, the Potency is active: 15.8 µM.
Same read-out and setting: the same measure for `O=C(CCCCCCCC(=O)NNC(=O)Nc1ccccc1)NNC(=O)Nc1ccccc1`: active: 28.2 µM; for `COc1cc(Cc2cnc(N)nc2N)cc(OC)c1OC`: “inactive”; for `CCCNC(=O)c1c(N)n(-c2ccc(S(N)(=O)=O)cc2)c2nc3ccccc3nc12`: active: 20 µM.
For the compound `CN1CCN2c3ccccc3Cc3ccccc3[C@@H]2C1`, the Potency entry is “inactive”.
On to `N#CC(=C(/N)Sc1ccccc1N)/C(C#N)=C(/N)Sc1ccccc1N`, for which the “activity change, negative = inhibition” value was inactive: -7.96%.
Same read-out and setting: the same measure for `NS(=O)(=O)c1cccc2c1c([N+](=O)[O-])cc1nc(O)c(O)nc12`: inactive: -8.69%.
For the compound `CCc1cc(=O)oc2cc(C)c(CN3CCCCC3)c(O)c12`, the Potency was active: 17.8 µM.
On to `O=C1N=C(O)CN1/N=C\c1ccc(-c2ccc([N+](=O)[O-])cc2)o1`, for which the Potency result is “inactive”.
`Cc1[nH]c(=O)c(C#N)cc1-c1ccncc1`: the Potency result was “inactive”.
For the compound `C[C@@]12C(=O)OC(=O)[C@@]1(C)C1CCC2O1`, the “activity change, negative = inhibition” value is inactive: 1.9%.
Take `O=C(COC(=O)C1(c2ccc(F)cc2)CCCC1)NCc1ccco1`: the Potency is active: 22.4 µM.
Take `CC1(C)S[C@H]2[C@@H](NC(=O)C(N)c3ccccc3)C(=O)N2[C@H]1C(=O)O` (some centres undefined): the “activity change, negative = inhibition” value was inactive: -1.1%.
Consider `O=[N+]([O-])c1cc(Br)cc(C=Nc2ccc3c(c2)OCO3)c1O`, for which the Potency is active: 14.1 µM.
Same read-out and setting: to `C#CCOCCOCCOCCNc1nc(N2CCN(C(=O)[C@H](Cc3cc4ccccc4[nH]3)n3cc([C@@H](N)CC(C)C)nn3)CC2)nc(N2CCN(C(=O)[C@H](Cc3cc4ccccc4[nH]3)n3cc([C@@H](N)CC(C)C)nn3)CC2)n1` belongs active: 22.4 µM; to `Cn1c2ccccc2c(=O)n2c(=O)c3ccccc3cc12`, active: 25.1 µM.
Still for that read-out and setting: to `C[n+]1cccc2cccc([O-])c21` belongs active: 25.1 µM.
Consider `S=C(Nc1ccccc1)Nc1nccs1`, for which the “activity change, negative = inhibition” value is inactive: 7.46%.
Still for that read-out and setting: to `CC(=O)NCCc1c[nH]c2ccc(O)cc12` belongs inactive: 4.98%; to `C[C@@]12C=CC(=O)C=C1CCC1C3CC(O)[C@@](O)(C(=O)CO)[C@]3(C)CC(O)[C@]12F` (some centres undefined), inactive: 2.52%.
The same measure, in the same setting: the same measure for `CN1CCc2ccccc2Cc2[nH]c3ccccc3c2CC1`: inactive: -2.52%.
As to `O.O.O.O.O.O.O.O=S(=O)([O-])[O-].[Co+2]`, the Potency is active: 8.91 µM.
Take `COc1cc(/C=C2\SC(=O)N(CC(=O)Nc3ccc(C)cc3)C2=O)cc(Cl)c1OCC(=O)O`: the Potency was active: 10 µM.
The same measure, in the same setting: the same measure for `Cc1ccc(C2=NC(=O)/C(=C/c3cc(O)c(O)c(Br)c3)S2)cc1`: active: 3.55 µM; for `O=C(c1ccccc1)c1ccc2nc(-c3ccco3)c(-c3ccco3)nc2c1`: active: 14.1 µM.
`N[C@H](CO)C(=O)O`: the “activity change, negative = inhibition” value was inactive: -14%.
As for `Cc1c(CC(=O)N2CCN(C(=O)C3COc4ccccc4O3)CC2)c(=O)oc2c(O)c(O)ccc12` (centres undefined), the Potency is active: 8.91 µM.
On the same count and under the same terms, to `CC(C)NC[C@H](O)COc1ccc(CC(N)=O)cc1` belongs “inactive”; to `COC(=O)C1C2CC3c4[nH]c5cc(OC)ccc5c4CCN3CC2CC(OC(=O)c2cc(OC)c(OC)c(OC)c2)C1OC` (centres undefined), “inactive”.
Regarding `CO[C@@]1(NC(=O)CSCC#N)C(=O)N2C(C(=O)O)=C(CSc3nnnn3C)CS[C@@H]21`, the “activity change, negative = inhibition” value is inactive: -6.34%.
Still for that read-out and setting: the same measure for `CCC(NC(C)C)C(O)c1ccc(O)c(O)c1` (centres undefined): inactive: -0.345%; for `O=C(O)c1ccccc1Nc1ccccc1`: inactive: 7.51%.
Take `CC1(C)C(=O)NC2=C1C(=O)C(=O)c1ccccc12`: the Potency was active: 2.82 µM and active: 2.51 µM.
The same measure, in the same setting: the same measure for `NC12CC3CC(CC(C3)C1)C2`: “inactive”.
Take `COC(=O)[C@H]1[C@@H]2C[C@H]3c4[nH]c5ccccc5c4CCN3C[C@@H]2CC[C@@H]1O`: the “activity change, negative = inhibition” value is inactive: 0.36%.
`O=C(COC(=O)c1cc2c(s1)CCC2)Nc1ccc(F)cc1`: the Potency was active: 15.8 µM.
On the same count and under the same terms, the same measure for `O=C(O)c1c(Cl)c(Cl)c(Cl)c(Cl)c1-c1c2cc(I)c(=O)c(I)c-2oc2c(I)c(O)c(I)cc12`: active: 11.2 µM and active: 14.1 µM.
Still for that read-out and setting: the same measure for `N[C@@H](C(=O)N[C@@H]1C(=O)N2C(C(=O)O)=C(Cl)CS[C@H]12)c1ccccc1`: “inactive”; for `CN1\C(=C/C=C/C=C/C=[N+](C)C)C(C)(C)c2ccccc21`: active: 28.2 µM.
Consider `Cc1cc(=O)[nH]c2c(N=Nc3ccc(O)cc3)c(N)nn12`, for which the Potency was active: 15.8 µM.
In the case of `NCCS(=O)O`, the “activity change, negative = inhibition” value was inactive: 1.98%.
As to `CNc1ncnc2c1ncn2[C@H]1C[C@H](OP(=O)(O)O)[C@H](COP(=O)(O)O)O1`, the “activity change, negative = inhibition” value is inactive: 3.63%.
On the same count and under the same terms, to `CCCCC1=CC2=C(c3ccco3)C(=O)C(C)(OC(=O)c3ccc(OC)cc3)C(=O)C2=CN1Cc1ccco1` (centres undefined) belongs inactive: -1.78% [at 12.4 µM].
`CC(C)NC[C@H](O)c1ccc(O)c(O)c1`: the Potency entry was “inactive”.
The same measure, in the same setting: the same measure for `CN(C)CCOC(=O)COc1ccc(Cl)cc1`: “inactive”; for `COc1ccc(Nc2nc(N)c3cc(OC)c(OC)cc3n2)cc1`: active: 15.8 µM; for `C[C@H](N=C(NC#N)Nc1ccncc1)C(C)(C)C`: “inactive”.
With `OC(CCN1CCCCC1)(c1ccccc1)C1CCCCC1` (centres undefined), the Potency result is “inactive”.

(Values after PubChem BioAssay AID2528 (National Center for Advancing Translational Sciences (NCATS), 2010).)
